# From PubChem BioAssay AID602393 (Broad Institute, 2012)
# Among all 350,000 compounds or so, about 7,000 (2%) were called active. The inconclusive results got no clear call from the source; some entries with a clear call stand among them for comparison. Rule as the data show it: active = activation above about 40%; inconclusive = no clear call, values can overlap the other calls; inactive = below that.
# Assay: raisers of Bmi1 knock-in reporter signal – mouse ES cells, Bmi1 luciferase knock-in, single point, esBAF inhibitor project, primary screen (AID 602393);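 also: 0% = median of the plate's neutral control wells and 100% = double that signal; a rise in the Bmi1 reporter signal indicates esBAF inhibition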
# Details: 24 h, at 12.5 µM, active compounds read high, 100% = twice the neutral-well signal
row,SMILES,reporter increase
1,O=C1CC(c2ccccc2)CC(O)=C1C=NC1CCCCCC1 (centres undefined),inconclusive: 45.9%
2,Cc1cc(N2CCC(C)CC2)nc(SCC(=O)c2ccccc2)n1,inconclusive: 42.3%
3,COC(=O)CN1C(=O)S/C(=C/c2ccc(N3CCCCC3)o2)C1=O,inconclusive: 40.3%
4,Cc1ccc(-c2ccc(CCC(=O)O)n2-c2cccc(C(=O)O)c2)cc1,inconclusive: 78.1%
5,Cn1ccsc1=NC(=O)c1ccc(OC(F)(F)F)cc1,inconclusive: 25.2%
6,COc1ccc(CNC(=O)C(c2ccncc2)N(C(=O)Cc2cccs2)c2ccc(C)cc2)cc1 (centres undefined),active: 130%
7,O=C(c1cc2ccccc2oc1=O)N(Cc1ccccc1)C1CCS(=O)(=O)C1 (centres undefined),inconclusive: 46.2%
8,COc1ccc(C)cc1NC(=O)C(OC(=O)c1cnccn1)c1ccccc1 (centres undefined),inactive: 1.76%
9,CC(=O)c1ccccc1NC(=O)c1ccc(N2CCCC2=O)cc1,inconclusive: 43.3%
10,CCOC(=O)CN1CC23C=CC(O2)C(C(=O)Nc2ccc4c(c2)OCO4)C3C1=O (centres undefined),inconclusive: 43.4%
11,CCOC(=O)c1ccc(N/C=C/C(=O)c2ccc(OC)cc2)cc1,inconclusive: 41.6%
12,Cc1cccc(Cc2nnc(CCC(=O)N(C)CCc3ccccc3)o2)c1,inconclusive: 42.1%
13,Cc1ccc(CNC(=O)c2ccc(Cn3cc(-c4ccc(C)cc4)nc3-c3ccncc3)cc2)cc1,active: 99.4%
14,C[C@@H]1CN([C@@H](C)CO)S(=O)(=O)c2ccc(C#CC3CCCC3)cc2O[C@H]1CN(C)C(=O)C1CC1,inactive: 1.48%
15,C[C@@H]1CCCCO[C@H](CN(C)C(=O)c2ccccc2)[C@@H](C)CN([C@@H](C)CO)C(=O)c2cc(NC(=O)C3CCCCC3)ccc2O1,inactive: 4.42%
16,CCc1ccc(C(=O)CN2C(=O)NC(C)(c3ccc(C)cc3)C2=O)cc1 (centres undefined),inactive: -2.53%
17,CC#CCCCC(=O)Nc1ccccc1C(=O)O,inconclusive: 51.1%
18,C[C@@H]1CN([C@H](C)CO)C(=O)Cc2cc(NS(=O)(=O)c3cn(C)cn3)ccc2O[C@H]1CN(C)S(C)(=O)=O,inactive: -2.47%
19,Cc1ccc(OCc2ccc(C(=O)O)o2)cc1C,inconclusive: 58.6%
20,C[C@@H]1CN([C@@H](C)CO)C(=O)c2cc(NC(=O)CCCN(C)C)ccc2O[C@H]1CN(C)Cc1ccc(C(=O)O)cc1,inactive: 1.86%
21,COc1cc(-c2noc(C3CCCN(S(=O)(=O)c4cccc(Cl)c4)C3)n2)cc(OC)c1OC (centres undefined),inactive: 0.345%

row,SMILES,reporter increase
1,O=C(Cn1cc(C(=O)c2cccs2)c2ccccc21)NCc1cccs1,inconclusive: 40.6%
2,COc1ccc2c(c1)O/C(=C\c1ccccc1C)C2=O,inconclusive: 41.7%
3,COc1ccccc1NC(=O)C(=O)c1cn(CC(=O)N2CCOCC2)c2ccccc12,inconclusive: 42.5%
4,C[C@H](CO)N1C[C@H](C)[C@H](CN(C)Cc2ccc3c(c2)OCO3)Oc2ccc(NC(=O)CCN3CCOCC3)cc2C1=O,inactive: 4.11%
5,CC(C)CN1C(=O)c2ccc(C(=O)Nc3ccccc3C(=O)O)cc2C1=O,inconclusive: 41.8%
6,O=[N+]([O-])c1cccc(NN=Nc2ccccc2)c1,inconclusive: 52.4%
7,O=C(Nc1ccc(CN2CCOCC2)cc1)c1ccc2ccccc2c1,active: 60.7%
8,COC(=O)C1CCCCN1C(=O)c1ccc2oc(Cc3ccccc3)nc2c1 (centres undefined),inconclusive: 41.5%
9,CCS(=O)(=O)Nc1ccc(C(=O)NCCSc2ccccc2)cc1,inconclusive: 53.3%
10,Cc1ccc2c(c1)c(C)c(C)n2CC(O)Cn1nnc2ccccc21 (centres undefined),active: 63.5%
11,O=C(N/N=C/c1cccs1)c1cccc2cc[nH]c12,active: 56.9%
12,CC(=O)NCCNc1nc2cc(-c3ccc(C)cc3)sc2c(=O)n1C,active: 53.5%
13,Cc1cc(C)cc(-c2nc(-c3ccncc3)no2)c1,inconclusive: 44.3%
14,CCOC(=O)CC(NS(=O)(=O)c1ccc2[nH]cc(C(=O)O)c(=O)c2c1)c1ccc(OCC)c(OC)c1 (centres undefined),inactive: -4.91%
15,CS(=O)(=O)Nc1ccc2c(c1)[C@H]1C[C@H](CC(=O)N3CCCCC3)O[C@@H](CO)[C@H]1O2,inactive: -3.57%
16,Cn1cnc(S(=O)(=O)N2C[C@H](O)COC[C@H]3O[C@H](CC(=O)NCc4ccc(F)cc4)CC[C@@H]32)c1,inactive: -2.64%
17,CC(NC(=O)NC(=O)c1ccc(F)cc1)C1CC1 (centres undefined),inconclusive: 47.3%
18,Cc1c(C)n(CCO)c2ncnc(Nc3ccc(F)cc3)c12,inconclusive: 42.7%
19,C[C@H](CO)N1C[C@H](C)[C@H](CN(C)Cc2cccc(F)c2)Oc2cc(-c3cccc(C#N)c3)ccc2S1(=O)=O,inactive: 1.64%
20,C/C=C/c1ccc([C@H]2[C@H](CO)N[C@H]2CN(C(=O)C2CCC2)C(C)C)cc1,inactive: 0.611%
21,C[C@H]1CN([C@@H](C)CO)C(=O)Cc2cc(NC(=O)C3CCCCC3)ccc2O[C@@H]1CN(C)C,inactive: -3.56%

row,SMILES,reporter increase
1,O=C(Nc1ccc(Br)cc1)c1ccc(CSC2=NCCS2)cc1,inconclusive: 42%
2,COc1ccc(CCNC(=O)C2CC(c3ccccc3[N+](=O)[O-])=NO2)cc1 (centres undefined),active: 45.4%
3,Cc1cccc(C(=O)c2cnc3ccccc3c2-c2ccccc2)c1,inactive: 27%
4,O=C(/C=C/c1ccc([N+](=O)[O-])cc1)c1cccs1,inactive: 15.3%
5,C=CCc1ccc(OCCCCN2CC(C)CC(C)C2)c(OC)c1 (centres undefined),inactive: -1.43%
6,O=C1CCC(=O)N1c1ccc(CSc2nc3ccccc3[nH]2)cc1,active: 41.8%
7,Cc1cccc(CN2CCN(c3ccccn3)CC2)c1,inactive: 6.25%
8,OC(c1ccccc1)c1ncc(-c2ccccc2F)[nH]1 (centres undefined),active: 62.1%
9,Fc1cnc(N2CCc3ccccc32)nc1N1CCc2ccccc21,active: 47.4%
10,CCOc1ccc(-c2nnn(CC(=O)c3ccc4c(c3)OCCO4)n2)cc1OCC,inconclusive: 43.8%
11,COC(=O)c1cccc(NC(=O)c2cc3sccc3n2C)c1,inconclusive: 44.5%
12,C[C@@H]1CCCCO[C@H](CN(C)C(=O)Cc2ccccc2)[C@H](C)CN([C@@H](C)CO)C(=O)c2cc(NC(=O)Nc3ccc(C(F)(F)F)cc3)ccc2O1,inactive: -0.865%
13,COC(=O)c1ccccc1NC(=O)c1nc(S(=O)(=O)Cc2ccccc2)ncc1Cl,inactive: -59.4%
14,CC[C@@]1(C(=O)OC)N[C@H](CN(C)S(=O)(=O)c2ccc(-c3ccccc3)cc2)[C@@H]2C(=O)N(Cc3ccccc3)C(=O)[C@@H]21,inactive: -6%
15,O=C(NC1CCCC1)C(=O)c1c[nH]c2ccccc12,inconclusive: 41.6%
16,CCN(CC)C(=O)c1sc(NC(=O)c2ccc3c(c2)OCO3)c(C(N)=O)c1C,inconclusive: 42.4%
17,CC(=O)c1ccc(NC(=O)CSC(=S)N2CCCC2)cc1,inconclusive: 49%
18,CCOC(=O)c1c(/N=C/c2ccc(OC)cc2O)sc2c1CCN(C)C2,inactive: -0.049%
19,Cc1cccc(-n2c(O)c(C=Nc3cccc(O)c3)c3ccccc3c2=O)n1,inactive: 4.47%
20,O=C(CN1CCCC1)Nc1ccc(NC(=O)Nc2ccccc2)cc1,inconclusive: 41%
21,COc1ccc(NC(=S)N2CCc3ccccc32)cc1OC,inconclusive: 42.3%

row,SMILES,reporter increase
1,CN(C)C(CNC(=O)c1cc(S(=O)(=O)N2CCOCC2)ccc1Cl)c1cccs1 (centres undefined),inconclusive: 43.8%
2,CCOC(=O)CCn1nc(-c2ccc(Cl)cc2)cc1N,inconclusive: 46.8%
3,CSc1nc(N)n2nc(-c3ccc(Cl)cc3)cc2n1,inconclusive: 67.7%
4,Cc1csc(=NC(=O)c2ccccc2)n1C,inconclusive: 47.6%
5,Cc1ccccc1S(=O)(=O)NC(=O)C1(C)CCN1C(=O)Cc1ccc(C(C)(C)C)cc1 (centres undefined),inactive: -5.79%
6,CCC(=O)N[C@@H]1CC[C@H](CCn2cc(C3CC3)nn2)O[C@@H]1CO,inactive: -4.53%
7,CCCCC/C=C\C/C=C\C/C=C\CCCCC(=O)O,inactive: 1.45%
8,CCC(=O)NC(=S)Nc1ccc(NC(=O)c2ccc(Br)o2)cc1,active: 68.6%
9,Cc1cccnc1NC(=O)c1cc2ccccc2oc1=O,inconclusive: 62.2%
10,CCCC(=O)c1ccc(N2CCCC2)c(F)c1,inconclusive: 43.9%
11,Cc1ccccc1NC(=O)CCC(=O)OCC(=O)c1cccc([N+](=O)[O-])c1,inactive: -0.477%
12,C[C@@H]1CN([C@H](C)CO)C(=O)c2cc(C#Cc3ccccc3)cnc2O[C@H]1CN(C)C(=O)CN(C)C,inactive: 1.22%
13,COc1ccc(S(=O)(=O)N(C)C[C@H]2Oc3ccc(NC(=O)Nc4cccc5ccccc45)cc3CC(=O)N([C@H](C)CO)C[C@@H]2C)cc1,inactive: 4.5%
14,C[C@H]1CN([C@@H](C)CO)C(=O)Cc2cc(NS(=O)(=O)c3cccs3)ccc2O[C@H]1CN(C)S(=O)(=O)c1cccs1,inactive: 1.1%
15,CCOc1cccc(Nc2ccc([N+](=O)[O-])cn2)c1,inconclusive: 40.2%
16,Cc1ccc2c(c1)NC(=O)CC(c1ccccc1)=N2,inconclusive: 40.9%
17,C[C@@H]1CN([C@@H](C)CO)C(=O)c2cc(NC(=O)CCC(F)(F)F)ccc2O[C@@H](C)CCCCO[C@H]1CN(C)Cc1ccc(C(=O)O)cc1,inactive: -1.82%
18,Cc1noc(C)c1C(=O)Nc1nc(-c2cc(F)ccc2F)cs1,active: 74.3%
19,CCCn1nnc2sc3c(c2c1=O)CCC(C)C3 (centres undefined),inconclusive: 41.9%
20,COc1ccccc1C(=O)Nc1ccc2c(c1)C(=O)NC2=O,inconclusive: 40.9%
21,Cc1cc(/C(N)=N/OC(=O)Nc2ccc(Cl)cc2)no1,inconclusive: 48%
